The text below walks through data of article PMC6919601, “Identification of Plasmodium dipeptidyl aminopeptidase allosteric inhibitors by high throughput screening” (PLoS ONE, 2019).

The structures appear in SMILES notation. Several values for one entry are separate records, joined by “and”; a condition that tells them apart may be missing. Equal entries are not always repeated. About 230 (0.21%) of roughly 110,000 compounds showed an effect of 50% or more. The list shows a part of the results.
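Note: 30 min substrate incubation versus DMSO and 10 µM JCP410 controls.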

The target of the test is DPAP1 (Plasmodium falciparum, UniProt Q8IIJ9). Put plainly: primary screen, percent inhibition; read by cleavage of a fluorogenic dipeptide substrate; higher = more effect of the substance. Also on record: species or system P. falciparum D10 trophozoite lysates; single well.
DPAP1, sequence (Q8IIJ9 whole entry, looked up): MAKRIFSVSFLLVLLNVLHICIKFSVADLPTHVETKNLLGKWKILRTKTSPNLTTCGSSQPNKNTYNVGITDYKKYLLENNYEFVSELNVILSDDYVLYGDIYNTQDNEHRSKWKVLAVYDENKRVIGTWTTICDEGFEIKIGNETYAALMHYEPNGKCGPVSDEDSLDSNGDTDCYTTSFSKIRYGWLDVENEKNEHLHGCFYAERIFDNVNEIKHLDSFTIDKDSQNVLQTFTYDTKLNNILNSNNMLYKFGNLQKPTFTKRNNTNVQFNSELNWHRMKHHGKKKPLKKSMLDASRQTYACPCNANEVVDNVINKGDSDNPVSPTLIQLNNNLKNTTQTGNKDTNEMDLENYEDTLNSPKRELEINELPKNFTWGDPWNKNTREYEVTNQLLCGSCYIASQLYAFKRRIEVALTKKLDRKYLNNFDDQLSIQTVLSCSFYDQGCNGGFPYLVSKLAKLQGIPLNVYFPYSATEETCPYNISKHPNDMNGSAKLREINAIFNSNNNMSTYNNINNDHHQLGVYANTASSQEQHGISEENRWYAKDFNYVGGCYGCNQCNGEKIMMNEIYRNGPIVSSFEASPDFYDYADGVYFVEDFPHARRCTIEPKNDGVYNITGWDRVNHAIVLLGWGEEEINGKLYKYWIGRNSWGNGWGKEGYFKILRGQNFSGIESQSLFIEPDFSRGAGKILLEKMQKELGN
Consider `O=C(/C=C/c1ccccc1)N1CCN(C/C=C/c2ccccc2)CC1`, for which the “% Inhibition @ 10 uM” value worked out at 1.48%.
The figure for `Cc1cc(NC(=O)CSc2cn(CCNC(=O)c3ccc(F)cc3)c3ccccc23)no1` is -0.631%; for `O=Nc1c(O)[nH]c2ccc([N+](=O)[O-])cc12` it is 1.42%.
Turning to `Cc1ccccc1C(=O)Nc1sc2c(c1C(=O)N1CCCC1)CCCC2`, the “% Inhibition @ 10 uM” value is -2.29%.
Turning to `COc1ccc(NC(=O)C2CC(=O)N=C(Nc3ccc(C)cc3)S2)c(OC)c1` (centres unmarked), the “% Inhibition @ 10 uM” value is on record as -4.01%.
As for `COc1ccc(OC)c(NC(=O)CSc2ncnc3[nH]cnc23)c1`, the “% Inhibition @ 10 uM” value was determined as 5.49%.
The figure for `COc1ccccc1C1(c2ccc(O)cc2)CCCC1` is -0.233%; for `COc1ccc(C2=C/C(=C3\c4ccccc4-c4ncccc43)C(=O)O2)cc1` it is 14.4%.
In the case of `CCCOC(=O)c1c(N)sc2c1CCCCC2`, the “% Inhibition @ 10 uM” value is reported as 30.9%.
The result for `COc1ccccc1NS(=O)(=O)c1ccc(N)cc1` reads -4.71%; that for `CC(C)(C)OC(=O)NC1CCN(C(=O)NC2CCCCC2)CC1`, -1.68%; that for `COc1ccccc1CN(C(C)=O)C1CC(C)(C)N(C(C)=O)C(C)(C)C1`, 5.38%.
Turning to `O=C(Cn1cccc1C(=O)c1ccccc1)NCc1cccc(Cl)c1`, the “% Inhibition @ 10 uM” value is recorded as 2.76%.
With `O=C(O)c1cccc(NC(=O)c2cccc(S(=O)(=O)NCc3ccccc3)c2)c1`, the “% Inhibition @ 10 uM” value was -1.91%.
The result for `CC(C)OCCCNC(=O)c1cc(O)nc2ccc(Br)cc12` reads -1.79%; that for `Clc1ccccc1N1CCN(Cc2cc(Br)cs2)CC1`, 3.16%; that for `CC(C)=CCN(C)CCc1ccccn1`, 3.24%.
In the case of `CCCc1[nH]nc2c1C(c1ccc(NC(C)=O)cc1)C(C#N)=C(N)O2` (centres unmarked), the “% Inhibition @ 10 uM” value is recorded as -0.105%.
The figure for `COc1ccc(N2C(=O)C(Cl)=C(Nc3cccc(C)c3C)C2=O)cc1` is 3.19%; for `CC(C)C[C@H](NC(=O)OCc1ccccc1)C(=O)NC1(C#N)CCC(C)CC1` (some centres unmarked) it is -1.41%.
For the compound `O=C(/C=C/c1ccc(N2CCOCC2)o1)c1ccc(Br)cc1`, the “% Inhibition @ 10 uM” value amounted to 2.8%.
The figure for `COc1cc(-c2cc(C(F)(F)F)n3ncc(C(=O)O)c3n2)cc(OC)c1OC` is 5.12%; for `Cc1ccc(NC(=O)C2CC(=O)N(c3ccccc3)C2)c(C)c1` (centres unmarked) it is 1.34%; for `CC1CN(Cc2ccc3c(c2)OCO3)CC(C)O1` (centres unmarked) it is -0.636%.
The result for `Cc1ccc(C)c(OCCCCCCc2c(C)n[nH]c2C)c1` reads -2.12%; that for `CC(C)NCCN1C(=O)c2ccccc2C(C(=O)O)C1c1cccs1` (centres unmarked), -2.9%; that for `O=C(NC(Cc1c[nH]c2ccccc12)C(=O)O)c1ccc(F)cc1` (centres unmarked), 10.2%.
Turning to `C#CC(CCN1CCCCC1)(OC)c1ccccc1` (centres unmarked), the “% Inhibition @ 10 uM” value is recorded as -3.93%.
Turning to `CCOC(=O)N1CCC(NC(=O)C2CCN(c3nc(-c4ccc(OC)cc4)no3)CC2)CC1`, the “% Inhibition @ 10 uM” value is listed as 1.96%.
As for `COc1ccc(Br)cc1/C=C1\N=C(c2cc(OC)c(OC)c(OC)c2)OC1=O`, the “% Inhibition @ 10 uM” value is reported as -3.33%.
The figure for `Cc1cc(C)n2c(nc3ccccc32)c1C(=O)O` is -4.68% and 0.331%; for `CC(C(=O)Nc1nc(-c2ccccc2)cs1)N1C(=O)c2ccccc2C1=O` (centres unmarked) it is -6.6%.
With `Cc1ccc(S(=O)(=O)N(C)CCCc2nc3ccccc3[nH]2)cc1`, the “% Inhibition @ 10 uM” value was -6.55%.
On to `Cn1ncc(Cl)c(Oc2ccccc2)c1=O`, for which the “% Inhibition @ 10 uM” value was 3.85%.
Regarding `NS(=O)(=O)c1ccc(NC(=O)c2cc(Cl)ccc2Cl)cc1`, the “% Inhibition @ 10 uM” value was determined as 19.1%.
The result for `COc1ccc(-c2ccc(CCC(=O)O)cc2)cc1` reads 4.03%; that for `CCCCNC(=O)CCc1nnc2n(CC(C)C)c(=O)c3ccccc3n12`, 0.981%; that for `Cc1ccccc1C1C=C(c2ccccc2OC(F)F)Nc2ncnn21` (centres unmarked), 0.219%.
For the compound `Cc1cccnc1NC(=O)C1CCCN(c2ncnc3c2nc2n3CCCCC2)C1` (centres unmarked), the “% Inhibition @ 10 uM” value is recorded as 4.39%.
The result for `CC1CCCC(C)N1C(=O)c1cccc2c1-c1ccccc1C2=O` (centres unmarked) reads 2.17%; that for `CN(C)CCNC(=O)c1cnn(-c2ccccc2)c1-n1cccc1`, -1.58%; that for `COc1cc(CN2CCN(Cc3ccccc3C)CC2)cc(OC)c1OC`, -10.8%.
Take `COCC(C)NCc1ccc(OC)c(OC)c1` (centres unmarked): the “% Inhibition @ 10 uM” value is reported as -3.39%.
The figure for `C=CCNC(=O)CN(c1cc(Cl)cc(Cl)c1)S(=O)(=O)c1ccccc1` is -6.75%.
The figure for `Cc1cccc(-c2nnn3c2nc(NC2CCCC2)c2ccccc23)c1` is 2.04%.
`Cc1ccc(/C=C2\N=C(c3ccccc3F)OC2=O)o1`: the “% Inhibition @ 10 uM” value is reported as 4.77%.
The result for `O=C1NC2(CCNCC2)N=C1c1ccc(F)cc1` reads -0.326%; that for `CCN(CC)C(=O)c1sc(NC(=O)C2CC2)c(C(N)=O)c1C`, 14.6%.
The figure for `CCc1cc2c(cc3c(=O)n(CC(=O)NCc4ccccn4)ncn32)s1` is -5.32%; for `FC(F)(F)c1cccc(CN2CCN(c3ccccc3)CC2)c1` it is -0.192%; for `CCOC(=O)C1=C(N)OC2=C(C(=O)CCC2)C1c1ccc(OCC)cc1` (centres unmarked) it is -4.18%.
The figure for `CCc1nnc2sc(-c3cccs3)nn12` is -2.84%; for `COc1ccc(-c2c3c(nc4sc(C(=O)N5CCOCC5)c(N)c24)CC(C)(C)CC3=O)cc1` it is -0.278%.
As to `Cc1nc2c(C(=O)NCCCN(Cc3ccccc3)C(C)C)cnn2c(C)c1Cc1ccccc1`, the “% Inhibition @ 10 uM” value is reported as -5.92%.
Regarding `Cc1ccc(CCNC(=O)CSCc2ccc(C)cc2)cc1`, the “% Inhibition @ 10 uM” value came to 3.79%.
The result for `CCn1ncc(C2=NOC(C(=O)NCc3ccccn3)C2)c1C` (centres unmarked) reads -8.58%; that for `COc1ccc(OC)c(C2=C/C(=C/c3cccnc3)C(=O)O2)c1`, 1.72%.
The result for `CCOCCCNC(=O)C1CCCN(c2nnc(-n3cccc3)s2)C1` (centres unmarked) reads -4.04%.
The figure for `CC(C)CNC(=O)c1ccccc1NC(=O)CSCc1ccccc1Cl` is 6.29%.
`COc1ccc(S(=O)(=O)N2CCn3c(nc4ccccc43)C2)cc1`: the “% Inhibition @ 10 uM” value is recorded as -1.08%.
The result for `CCOc1ccc(C2c3c(oc4ccccc4c3=O)C(=O)N2CCCN2CCOCC2)cc1OCC` (centres unmarked) reads 2.31%; that for `O=C(c1sc2ccccc2c1Cl)N1CCc2ccccc2C1`, -1.96%; that for `CCOC(=O)c1c(NC(=O)NCc2cccn2Cc2ccccc2)sc2c1CCCC2`, 5.09%.
As for `COc1ccc(Oc2nc3ccccn3c(=O)c2/C=C(\C#N)C(=O)NC2CCCCC2)cc1`, the “% Inhibition @ 10 uM” value was determined as 4.06%.
Turning to `COc1cccc2c1Oc1nc(-c3ccccc3C)nc(O)c1C2`, the “% Inhibition @ 10 uM” value is given as -2.84%.
The figure for `COc1ccc(COCC(O)CN2CCCCC2)cc1OC` (centres unmarked) is -2.55%; for `Cc1cc(-c2ccccc2)nc2cc(C(=O)Nc3ccc(Cl)cc3)nn12` it is -1.32%.
Take `O=C(c1ccccc1)N1CCN(CN2CCN(C(=O)c3ccccc3)CC2)CC1`: the “% Inhibition @ 10 uM” value was 5.85%.
Regarding `CCOc1ccccc1CN(C)CCc1ccccn1`, the “% Inhibition @ 10 uM” value is -9.24%.
Consider `O=C1CCC(=O)N1c1ccc(-c2ccc(N3C(=O)CCC3=O)cc2)cc1`, for which the “% Inhibition @ 10 uM” value is -4.52%.
Consider `O=[N+]([O-])c1ccc(NCCc2ccccc2)c([N+](=O)[O-])c1`, for which the “% Inhibition @ 10 uM” value is on record as 3%.
The result for `N#CC1=C(N)Nc2ncnn2C1c1ccc(Cl)cc1` (centres unmarked) reads 1.91%; that for `CC1=C(C)CC2C(=O)N(c3ccc(N(C)C)cc3)C(=O)C2C1` (centres unmarked), -2.71%.
On to `CN1CCN(CC(O)COc2ccc(C34CC5CC(CC(C5)C3)C4)cc2)CC1` (centres unmarked), for which the “% Inhibition @ 10 uM” value is -2.55%.
The result for `COc1ccc(Br)cc1CNC(=O)c1oc2c(c1C)-c1n[nH]cc1CC2` reads 3.87%.
Consider `Cc1cc(O)nc2nn(-c3ccccc3)cc12`, for which the “% Inhibition @ 10 uM” value is listed as -7.42%.
Regarding `O=C(O)c1ccc(N2C(=O)CC(N3CCN(c4ncccn4)CC3)C2=O)cc1` (centres unmarked), the “% Inhibition @ 10 uM” value is recorded as 3.21%.
For `Cn1cccc1Cc1nnc(SCC(=O)NC2CCCCC2)n1CCc1ccccc1`, the “% Inhibition @ 10 uM” value is given as -2.19%.
On to `CC(=O)C(C(C)=O)=C(N)N1CCN(c2ccccc2)CC1`, for which the “% Inhibition @ 10 uM” value was -6.51%.
The result for `CCCCNC(=O)CSc1nc(NCc2ccccc2)c2ccccc2n1` reads -5.68%.
The figure for `COC(=O)c1ccc(OCC2c3cc(OC)c(OC)cc3CCN2C(C)=O)cc1` (centres unmarked) is 0.759%.
Regarding `COC(=O)c1cc2c(s1)CN(C1CCCc3ccccc31)C2` (centres unmarked), the “% Inhibition @ 10 uM” value is recorded as -0.406%.
On to `Cc1n[nH]c(C)c1CCc1nc2c3ccccc3nc(SCC(=O)c3ccc(F)cc3)n2n1`, for which the “% Inhibition @ 10 uM” value was 1.24%.
The result for `CCN1CCN(CCCNC(=O)c2ccc(CS(=O)c3ccc(Br)cc3)o2)CC1` (centres unmarked) reads -2.15%; that for `Cc1cccc(C(=O)N2CCCCCC2)c1`, -0.41%; that for `CS(=O)(=O)C1=C(N)C(=O)N(c2ccccc2)C1c1ccccc1` (centres unmarked), -2.16%.
Turning to `COc1ccc(C2NC(C(=O)O)Cc3c2[nH]c2ccccc32)cc1` (centres unmarked), the “% Inhibition @ 10 uM” value worked out at 1.29%.
With `Cc1cccc(N(CC(=O)Nc2cccnc2)S(=O)(=O)c2ccccc2)c1C`, the “% Inhibition @ 10 uM” value amounted to 0.98%.
The result for `CC(C)NC(=O)CN(c1ccc(F)cc1)S(=O)(=O)c1ccccc1` reads 2.3%.
The result for `c1ccc(OCCCSCc2nc3ccccc3[nH]2)cc1` reads -0.0235%; that for `CCOC(=O)C1=C(N)Oc2cc(C)oc(=O)c2C1c1c(Cl)cccc1Cl` (centres unmarked), -4.77%.
In the case of `CCOC(=O)c1c(-c2ccc(OC)cc2)noc1C`, the “% Inhibition @ 10 uM” value is 2.39%.
The figure for `Cc1ccc(Cn2c3ccccc3c3nnc(NCC4CCCO4)nc32)cc1` (centres unmarked) is -6.32%; for `O=C(Nc1ccc(Cl)c(Cl)c1)C(=O)NC1CCCC1` it is -1.75%; for `CNS(=O)(=O)c1cn(CC(=O)NC2CCC(C)CC2)cc1S(=O)(=O)NC` (centres unmarked) it is -7.47%.
For `COc1ccccc1NC(=O)c1cccc(Br)c1`, the “% Inhibition @ 10 uM” value is recorded as -0.216%.
In the case of `O=C1c2ccc(Oc3ccc4c(c3)C(=O)N(c3cccnc3)C4=O)cc2C(=O)N1c1cccnc1`, the “% Inhibition @ 10 uM” value is -4.74%.
As to `COc1ccccc1Nc1nc(N)nc(CSc2nc(C)cc(C)n2)n1`, the “% Inhibition @ 10 uM” value is on record as -4.52%.
The figure for `O=C(CSCc1c(Cl)cccc1Cl)Nc1ccc2c(c1)C(=O)NC2=O` is -0.864%.
The result for `COc1ccc(C2(C#N)CCc3[nH]c4ccccc4c3C2)cc1OC` (centres unmarked) reads 0.774%; that for `CC1=C(C(=O)Nc2ncccc2C)C(c2cnn(C)c2C)C2=C(O)CC(c3ccccc3)CC2=N1` (centres unmarked), 0.851%.
